Hit rate of the full screen: of about 420,000 compounds, about 50,000 (12%) were called active. Inconclusive means that the source gave no clear call. Such entries were picked first, then a sample of the others. The call rests on the fitted dose curve; in most records, active means well fitted inhibition curve with a large enough effect; inconclusive means small, poorly fitted or top-dose-only effect; inactive means flat fitted curve, though single readings scatter. No potency is given beside an inconclusive call; the fits are too rough. Some compounds were tested as several samples or in several runs, with calls that do not always agree.
Experiment: qHTS for Inhibitors of human tyrosyl-DNA phosphodiesterase 1 (TDP1): qHTS in cells in presence of CPT; further: nearly all actives have a fitted effect of over 55% in size
Conditions: chicken DT40 Tdp1-/-;hTDP1 cells + 20 nM CPT, ATP luminescence, 48 h; activity change, negative = growth inhibition: at 46.2 µM (top of the series) unless noted
Outline: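 Chicken DT40 Tdp1-/- cells stably complemented with human TDP1 were seeded at 400 cells/well in medium containing 20 nM camptothecin, exposed to pin-transferred compounds, and grown at 37 °C for at least 48 hr. Viability was read as ATP luminescence.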
On the % scale 0 is the no-effect control and ±100 the full control effect; potency means the concentration at half of the fitted maximal effect; tags describe the fitted curve by direction and shape.

| Compound | activity change, negative = growth inhibition | Potency |
| --- | --- | --- |
| COC(=O)Cc1c(C)c2ccc(OCc3nn[nH]n3)c(C)c2oc1=O | inactive: -7.76% | – |
| Cc1nn(C)c(C)c1CN(C(=O)CCc1nnc(Cc2c[nH]c3ccccc23)o1)C(C)C | – | inconclusive [inhibitor, single point] |
| CCCCCCN1C[C@@H](n2cc(C3CC3)nn2)[C@H](O)C[C@@H]1c1ccc(OC)cc1 | – | active: 18.4 µM |
| Cc1oc(-c2ccc(Cl)cc2)nc1CN1CCCC(C(=O)NCc2ccc(Cl)cc2)C1 (stereo not given) | – | inconclusive [inhibitor, full curve, poor fit] |
| CN(Cc1ccccc1)C(=O)c1ccc2c(c1)N(Cc1ccc(Cl)cc1)C(=O)c1ccccc1S2=O (stereo not given) | – | active: 16.4 µM |
| CCCOc1ccccc1C(=O)Nc1nc2c(s1)CCCC2 | – | active: 20.6 µM |
| O=C(c1cccc(N2C(=O)C3C4C=CC(C4)C3C2=O)c1)N1CCN(c2ccccc2Cl)CC1 (stereo not given) | – | inconclusive [inhibitor, single point] |
| CSc1nc(-c2ccc(Cl)cc2)nn1C(=O)c1ccccc1 | – | inconclusive [inhibitor, partial curve] |
| Cc1cccc(NC(=S)N/N=C(\c2ccccc2)C(C)C)c1 | – | inconclusive [inhibitor, single point] |
| O=C(Nc1cccc(Cl)c1)C1=Cc2cc(Cl)ccc2OC1 | – | inconclusive [inhibitor, single point] |
| COc1ccc(Cn2c(C3CCCCC3)nc3c(c(=O)c4ccccc4n3C)c2=O)cc1 | – | inconclusive [inhibitor, single point] |
| COc1ccc2c(c1)[C@H]1[C@H](CO2)[C@H](c2ccccc2)[C@]2(C)C(=O)N(CC3CCCO3)CC(=O)N12 (stereo not given in full) | inconclusive: -32.5% [inhibitor] | – |
| O=C(CSc1nnc(SCc2ccccc2)s1)N/N=C/C=C\c1ccco1 | – | inconclusive [inhibitor, single point] |
| CC(C)c1ccc(NC(=O)CSC2=Nc3ccccc3C3=NC(CC(=O)NCc4ccco4)C(=O)N23)cc1 (stereo not given) | – | inconclusive [inhibitor, partial curve] |
| O=C(NC1CCCCC1)c1ccc(-c2cn[nH]c2)c2ccoc12 | – | active: 23.1 µM |
| O=[N+]([O-])/C=C\c1ccc(N2CCOCC2)cc1 | – | active: 14.6 µM |
| O=C(COC(=O)C1CCCCC1C(=O)N1CCc2ccccc21)NCc1ccco1 (stereo not given) | inactive: -22.7% | – |
| CCc1ccccc1N1CC(c2nc3ccccc3n2CCC2CCCCC2)CC1=O (stereo not given) | – | active: 5.8 µM |
| Cc1nnc(N2CCC(C(=O)NCc3cccc(Cl)c3)CC2)c2nn(-c3ccccc3)c(C)c12 | – | inconclusive [inhibitor, single point] |
| C#Cc1ccc(NC(=O)C2(C)CCN2C(=O)C2(c3ccccc3)CCCC2)cc1 (stereo not given) | – | active: 23.1 µM |
| COc1ccc(S(=O)(=O)Nc2c(O)ccc3ccccc23)cc1OC | – | inconclusive [inhibitor, single point] |
| COc1cccc(NS(=O)(=O)c2ccc3[nH]cc(C(=O)N(C)Cc4ccco4)c(=O)c3c2)c1 | – | active: 23.1 µM |
| Cc1cccc(-n2cc(CN3CCCN(C=O)CC3)c(-c3cccc(F)c3)n2)c1 | – | inconclusive [inhibitor, full curve, poor fit] |

| Compound | activity change, negative = growth inhibition | Potency |
| --- | --- | --- |
| Fc1ccc(/C=C/c2ccc3ccccc3n2)cc1 | – | active: 2.82 µM |
| COc1ccc(CC(=O)Nc2cccc3ccccc23)cc1OC | – | inconclusive [inhibitor, single point] |
| FC(F)(F)c1cccc(Cn2cnc(NC(=S)NCCc3ccccc3)n2)c1 | – | inconclusive [inhibitor, partial curve] |
| COc1ccc(CCNC(=S)Nc2ccc(C(C)C)cc2)cc1 | – | inconclusive [inhibitor, single point] |
| O=C(NCc1ccc(F)cc1)c1c(O)c2cccc3c2n(c1=O)CCC3 | – | inconclusive [inhibitor, single point] |
| O=C(NCCCN1CCCC1)c1ccc2c(c1)N(Cc1ccccc1F)C(=O)c1ccccc1S2(=O)=O | inactive: -16% | – |
| Cc1ccc(C(=O)ONC(=O)c2ccc(Cl)cc2)cc1[N+](=O)[O-] | – | inconclusive [inhibitor, single point] |
| COc1ccc(/C=N/NC(=O)CCSc2nc3ccccc3s2)cc1 | – | active: 5.8 µM |
| CC(N=C1NS(=O)(=O)c2ccccc21)C(=O)NCc1ccc2c(c1)OCO2 (stereo not given) | inactive: 1.37% | – |
| CCOC(=O)N1CCN(C(=O)c2cnn(-c3cccc(C)c3)c2-n2cccc2)CC1 | – | inconclusive [inhibitor, single point] |
| CC(C)(C)N(Cc1cc2ccccc2[nH]c1=O)C(=O)c1cccnc1 | inconclusive: -36.8% [inhibitor] | – |
| COc1cc(NC(=O)C2=C(C)OCCS2)c(Cl)cc1C(=O)NCCCN1CCCC(C)C1 (stereo not given) | – | inconclusive [inhibitor, single point] |
| Cc1c(CCO)sc[n+]1CCc1ccccc1 | – | inconclusive [inhibitor, single point] |
| CCC(C)N(C(=O)CSc1nncn1C)C1CCS(=O)(=O)C1 (stereo not given) | inactive: -12.1% | – |
| Cc1cc(SCCOc2ccccc2)nc(N)n1 | inconclusive: -30.9% [inhibitor] | – |
| COc1ccc(OC)c(NC(=O)c2cc3c(=O)n4cccc(C)c4nc3n2C)c1 | – | active: 10.3 µM |
| CCCN(CCC)C(=O)c1ccc2c(c1)N(CC)C(=O)c1ccccc1S2(=O)=O | – | inconclusive [inhibitor, partial curve, poor fit] |
| Fc1ccc(CNc2ccc(N3CCN(Cc4ccccc4)CC3)cc2)cc1 | – | inconclusive [inhibitor, partial curve] |
| Cn1nccc1NS(=O)(=O)c1ccc(F)cc1 | inactive: 3.58% | – |
| CN(C)c1ncc2nc(-c3ccc(F)cc3)c(=O)n(C3CC3)c2n1 | inactive: -1.82% | – |
| COc1ccc(C2(c3ccc(OC)cc3)NC(=O)NC2=O)cc1 | inactive: 4.02% | – |
| O=C(COC(=O)Cc1ccc(-c2ccccc2)cc1)NCc1ccc(F)cc1 | – | active: 6.51 µM |
